From article PMC11320581 (ACS Infectious Diseases, 2024)

Assays:
[1] = target: T1, N. gonorrhoeae topoisomerase IV (Neisseria gonorrhoeae, UniProt P48374+Q5F754); conditions: previous study; cited from earlier work
[2] = target: T1, N. gonorrhoeae topoisomerase IV; assay: biochemical

C[C@@H]1CN2c3c(cc4c(N5C(=O)OC[C@@H]5C)noc4c3F)CC3(C(=O)NC(=O)NC3=O)[C@H]2[C@H](C)O1 [zoliflodacin, Zoliflodacin]
IC50 for decatenation, fold higher than that for supercoiling [1]: ~3 fold
EC50 [2]: ~55 µM
fold lower cleavage complexes with positively compared to negatively supercoiled DNA ([2]; topoisomerase IV 200 nM, in the absence and presence of zoliflodacin): ~3 fold
total (double-stranded + single-stranded) DNA cleavage ([2]; topoisomerase IV, 100 μM): 19.6%
double-stranded DNA cleavage ([2]; wild-type topoisomerase IV, 100 μM): 12.0%
